According to PubChem BioAssay AID485281 (National Center for Advancing Translational Sciences (NCATS), 2010):
In all, about 350,000 compounds went through this assay and about 260 (0.074%) were called active. The shares of active, inactive and inconclusive entries below differ from those in the screen. Calls come from the whole dose curve; as a rule, active = well fitted inhibition curve with a large enough effect; inconclusive = small, poorly fitted or top-dose-only effect; inactive = no such curve, though single readings can be large or run the other way. Potencies of inconclusive entries are doubtful fits and often do not repeat.

The molecules below were run against Ferritin light chain (Equus caballus) (UniProt P02791) (assay: qHTS Assay for Identification of Novel General Anesthetics). Conditions: apoferritin/1-aminoanthracene competitive binding, fluorescence; series mostly up to 77.5 µM.
UniProt P02791, sequence (P02791 whole entry, looked up): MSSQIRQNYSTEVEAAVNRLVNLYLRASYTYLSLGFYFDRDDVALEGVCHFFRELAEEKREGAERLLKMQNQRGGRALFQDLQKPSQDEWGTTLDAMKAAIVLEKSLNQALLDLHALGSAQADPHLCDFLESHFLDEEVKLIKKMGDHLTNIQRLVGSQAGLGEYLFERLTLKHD
Outline: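 Horse-spleen apoferritin (10 uM) was mixed with 50% saturated 1-aminoanthracene in PBS, exposed to compounds for 10 min at room temperature, and read for fluorescence (ex 380 nm, em 535 nm). Competitive displacement was fitted with a four-parameter Hill equation.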
Note: nearly all actives have a fitted effect of over 20% in size.
Potency is the fitted concentration of half-maximal effect; tags give direction and shape of the fitted curve.

Compound | Potency
Cc1nnc(C)n1/N=C/c1ccc(-c2ccccc2)cc1 | inconclusive: 31.6 µM [inhibitor, partial curve]
O=C(Cn1ncc2c3ccccc3n(Cc3cccc(Cl)c3)c2c1=O)N1CCCCCC1 | inactive
C/C(CC(C)C)=N\Nc1ccc(S(N)(=O)=O)cc1[N+](=O)[O-] | inconclusive: 25.1 µM [inhibitor, partial curve]
Cc1ccc(C)c(S(=O)(=O)c2nnn3c2nc(N2CCCCC2)c2sccc23)c1 | inactive
c1cc(C2CCN(Cc3nc(-c4ccc5c(c4)OCO5)no3)CC2)ccn1 | inactive
CC1Cc2cc(C3(O)C(=O)c4ccccc4C3=O)ccc2N1 (configuration not stated) | inconclusive: 25.1 µM [inhibitor, partial curve]
CC12CCC(c3nnc(SCC(=O)Nc4cccc5ccccc45)nc31)C2(C)C (configuration not stated) | inconclusive: 31.6 µM [inhibitor, partial curve]
CC(C)c1ccc(NC(=O)Cn2c(=O)oc3cc(S(=O)(=O)N4CCCC4)ccc32)cc1 | inactive
O=C(CSc1nnc(-c2ccccc2)c(-c2ccccc2)n1)NCc1ccco1 | inactive
O=C(CNc1cccc2ccccc12)N/N=C/c1ccccn1 | inconclusive: 14.1 µM [inhibitor, single point]
Cc1noc2ncnc(N3CCCC(C(=O)Nc4cccc(C(F)(F)F)c4)C3)c12 (configuration not stated) | inconclusive: 35.5 µM [inhibitor, single point]
Cc1cc(C)c2c(=O)c3c(oc2c1)C(=O)N(Cc1ccco1)C3c1ccccc1F (configuration not stated) | inconclusive: 50.1 µM [inhibitor, single point]
Cc1cccc(Cc2nnc(CCC(=O)N(C)CCc3ccccc3)o2)c1 | inconclusive: 25.1 µM [inhibitor, partial curve, poor fit]
Cc1ccc(OC(=O)c2cc3ccccc3o2)cc1 | inconclusive: 56.2 µM [inhibitor, single point]
CCCCOc1ccc(CSC2=NCCN2)cc1[N+](=O)[O-] | inconclusive: 56.2 µM [inhibitor, single point]
O=C(OCc1nc2ccccc2s1)c1ccc(Br)o1 | inconclusive: 28.2 µM [inhibitor, single point]
Cc1cc(C(=O)OCn2nnc3ccccc3c2=O)c(C)o1 | inconclusive: 28.2 µM [inhibitor, partial curve]
COc1ccc(/C=N/Nc2nc(-c3ccc(Cl)cc3)cc(C(F)(F)F)n2)cc1OC | inconclusive: 56.2 µM [inhibitor, single point]
COc1ccc(Nc2nnc(SC(C(=O)Nc3cc(C)ccc3C)c3ccccc3)s2)cc1 (configuration not stated) | inactive
O=C(NCCc1ccccc1)c1n[nH]c2ccccc12 | inconclusive: 44.7 µM [inhibitor, single point]
O=C(CCl)Oc1ccc2occ(C(=O)c3cccs3)c2c1 | inconclusive: 35.5 µM [inhibitor, partial curve]
C=CCn1c(C)cc(C(=O)CSc2nc(N)cc(N)n2)c1C | inconclusive: 20 µM [inhibitor, partial curve]
CC(=O)N(C1CC(C)C(C#N)(C#N)C1(C#N)C#N)N(C)C (configuration not stated) | inactive

Compound | Potency
Cc1ccc([N+](=O)[O-])cc1NC(=S)NC(=O)CC(C)(C)C | inconclusive: 25.1 µM [inhibitor, partial curve]
Cc1cc(NC(=O)CSc2cn(CC(=O)N(C(C)C)C(C)C)c3ccccc23)no1 | inconclusive: 25.1 µM [inhibitor, partial curve]
Cc1ccc2nc(SCC(=O)NC(=O)NCc3ccco3)[nH]c2c1 | inconclusive: 35.5 µM [inhibitor, single point]
CCOc1cccc2sc(N(CCCN(C)C)C(=O)c3ccc(C(=O)c4ccccc4)cc3)nc12 | inconclusive: 28.2 µM [inhibitor, partial curve]
Cc1[nH]c2ccccc2c1/C=C(\C#N)C(=O)NC(C)c1ccccc1 (configuration not stated) | inconclusive: 25.1 µM [inhibitor, partial curve]
Fc1ccccc1C1=NC(c2ccc(C(F)(F)F)cc2)=Nc2ccccc2N1 | inconclusive: 17.8 µM [inhibitor, partial curve]
O=C(O)/C=C/C(=O)NNc1ccc([N+](=O)[O-])cc1 | inconclusive: 31.6 µM [inhibitor, single point]
Cc1ccc(C)c(Cn2cnc3ccccc3c2=O)c1 | inconclusive: 22.4 µM [inhibitor, partial curve]
Cc1scc(C(=O)NCc2ccco2)c1-c1ccccc1 | inconclusive: 39.8 µM [inhibitor, single point]
Cc1cc(C)cc(NS(=O)(=O)c2ccc(F)cc2)c1 | inconclusive: 25.1 µM [inhibitor, partial curve]
COc1ccc(NC(=O)c2ccc(N3C(=O)C4CC=C(C)CC4C3=O)cc2)c(OC)c1 (configuration not stated) | inconclusive: 44.7 µM [inhibitor, partial curve]
NC(=O)c1ccc(C(=O)N/N=C(/Cc2ccccc2)c2ccccc2)cc1 | inconclusive: 31.6 µM [inhibitor, partial curve]
N#Cc1c2n(c3c(=O)n(CC(=O)c4ccc([N+](=O)[O-])cc4)cnc13)CCCCC2 | inconclusive: 5.01 µM [inhibitor, full curve, poor fit]
Cc1ccccc1NC(NC(=O)c1cccs1)C(Cl)(Cl)Cl (configuration not stated) | inconclusive: 12.6 µM [inhibitor, partial curve]
Cc1ccc(-c2n[nH]c(=S)c3ccccc23)cc1 | inconclusive: 20 µM [inhibitor, partial curve]
CC(C)CCNC1=NCCCCC1 | inactive
COc1cc(-c2ccno2)ccc1S(=O)(=O)N1CCN(c2ccc(F)cc2)CC1 | inconclusive: 14.1 µM [inhibitor, partial curve]
Cc1noc(C)c1-c1ccc2ncnc(NCc3ccccc3Cl)c2c1 | inactive
CC(=O)Nc1ccc(C(=O)OCc2ccccc2Br)cc1 | inconclusive: 35.5 µM [inhibitor, partial curve]
Cc1cccc(NC(=O)N(C)Cc2cccs2)c1 | inconclusive: 17.8 µM [inhibitor, partial curve]
CSc1ccccc1NC(=O)Cc1ccccc1[N+](=O)[O-] | inconclusive: 28.2 µM [inhibitor, partial curve]
CCCCc1nc(NCCO)c(C#N)c2c1CCCC2 | inconclusive: 35.5 µM [inhibitor, partial curve]
CC(C)c1nc2ccc(NC(=O)C34CC5CC(CC(C5)C3)C4)cc2[nH]1 | inconclusive: 50.1 µM [inhibitor, single point]

Compound | Potency
CCc1nnc(NC(=O)CSc2nc3c([nH]c4ccccc43)c(=O)n2-c2ccc(OC)cc2)s1 | inconclusive: 0.891 µM [inhibitor, full curve]
CCCCn1c(NC(=O)CC)c(C#N)c2nc3ccccc3nc21 | inactive
O=C1C2CCCN2C(=O)N1CCCN1CCN(c2cccc(Cl)c2)CC1 (configuration not stated) | inactive
CCOc1ccc(NC(=O)CN2C(=O)C(c3ccccc3)=NC23CCCCCC3)cc1 | inconclusive: 0.891 µM [inhibitor, full curve]
Cc1cccc(CS(=O)(=O)Cc2ccc(C(=O)NCc3ccc(Cl)cc3)o2)c1 | inconclusive: 35.5 µM [inhibitor, partial curve, poor fit]
CCN(CCCNC(=O)c1nn(-c2ccc(OC)cc2)c(=O)c2c1c1ccccc1n2C)c1cccc(C)c1 | inactive
CCN(CC)c1nc2ccccc2c(N)c1-c1ccccc1 | inconclusive: 11.2 µM [inhibitor, partial curve]
O=C(NCc1ccc2c(c1)OCO2)C1CC(c2ccccc2O)=NO1 (configuration not stated) | inconclusive: 25.1 µM [inhibitor, partial curve, poor fit]
O=C(CSc1oc(-c2ccco2)nc1S(=O)(=O)c1ccc(Cl)cc1)c1ccccc1 | inconclusive: 50.1 µM [inhibitor, single point]
Cc1cc(NC(c2cccnc2)c2ccc3cccnc3c2O)no1 (configuration not stated) | inconclusive: 35.5 µM [inhibitor, partial curve]
c1ccc(NC2=Nc3ccccc3CS2)cc1 | inconclusive: 2.82 µM [inhibitor, full curve, poor fit]
Cc1ccc(S(=O)(=O)CC(=O)c2ccc(C)c([N+](=O)[O-])c2)cc1 | inactive
Cc1ccc(O)c(C(=O)CC(=O)c2ccccc2Cl)c1 | inconclusive: 25.1 µM [inhibitor, partial curve]
COc1ccc(-c2nnc(SC(=O)N3c4ccccc4Sc4ccccc43)o2)cc1 | inconclusive: 17.8 µM [inhibitor, partial curve]
CCOC(=O)Cc1csc(NC(=O)CSc2nnnn2-c2ccc(CC)cc2)n1 | inconclusive: 3.55 µM [inhibitor, full curve]
CC(Nc1ccccc1)c1cccnc1 (configuration not stated) | inconclusive: 25.1 µM [inhibitor, partial curve]
COC(=O)C(CC(=O)c1ccc(C)cc1)n1nc(C)cc1C (configuration not stated) | inactive
CC1=C(n2nnc3ccccc32)C(c2ccccc2)C(C#N)=C(N)O1 (configuration not stated) | inactive
CCC(C)c1ccc(NC(=O)c2[nH]c(C)c(C(C)=O)c2C)cc1 (configuration not stated) | inconclusive: 22.4 µM [inhibitor, partial curve]
O=C(COC(=O)COc1ccc(Cl)cc1Br)NCc1cccs1 | inconclusive: 31.6 µM [inhibitor, partial curve]
Cc1c(C(=O)NC(=S)Nc2ccc(NC(=O)c3cccs3)cc2)oc2ccccc12 | inconclusive: 12.6 µM [inhibitor, partial curve]
